# Reference: PubChem BioAssay AID1476 (National Center for Advancing Translational Sciences (NCATS), 2009)
# Out of some 200,000 compounds screened, about 4,500 (2.2%) were called active. The shares of active, inactive and inconclusive entries below differ from those in the screen. The call rests on the fitted dose curve; in most records, active means well fitted inhibition curve with a large enough effect; inconclusive means small, poorly fitted or top-dose-only effect, or effect the other way; inactive means flat fitted curve, though single readings scatter. A potency beside an inconclusive call is a rough fit, not a confirmed value. Where a structure was tested more than once in an assay, its records may differ in their call.
# Biological target: Cruzipain (Trypanosoma cruzi) (UniProt P25779)
# Experiment: qHTS Assay for Promiscuous and Specific Inhibitors of Cruzain (without detergent); further: nearly all actives have a fitted effect of over 40% in size;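 on max response, negative = inhibition: plate controls were enzyme without inhibitor for no effect and buffer without enzyme for full effect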
# Conditions: purified cruzain, Z-FR-AMC fluorescence, no detergent
# Outline: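 Detergent-free condition (0.00005% Triton X-100) in acetate buffer pH 5.5 with DTT. 1.5 nM enzyme and compound were pre-mixed 15 min, then 2 uM Z-FR-AMC substrate added; reaction progress from fluorescence change between first and third reads (60 s).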
# Potency means the concentration at half of the fitted maximal effect; tags describe the fitted curve by direction and shape.
# Chain of UniProt P25779 (P25779 whole entry, looked up): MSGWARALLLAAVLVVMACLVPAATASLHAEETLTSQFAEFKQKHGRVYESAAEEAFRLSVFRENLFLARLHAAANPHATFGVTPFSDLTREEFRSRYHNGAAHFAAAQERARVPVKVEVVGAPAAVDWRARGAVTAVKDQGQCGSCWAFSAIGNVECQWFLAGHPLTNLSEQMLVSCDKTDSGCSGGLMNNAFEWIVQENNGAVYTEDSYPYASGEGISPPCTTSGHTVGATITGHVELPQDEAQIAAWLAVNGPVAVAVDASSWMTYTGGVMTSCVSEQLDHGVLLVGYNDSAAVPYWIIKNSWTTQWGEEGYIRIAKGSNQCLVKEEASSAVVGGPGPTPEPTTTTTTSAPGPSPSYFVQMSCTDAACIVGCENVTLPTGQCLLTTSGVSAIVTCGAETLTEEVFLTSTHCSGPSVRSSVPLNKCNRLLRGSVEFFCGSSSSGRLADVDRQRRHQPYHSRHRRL
Compound,Potency,"max response, negative = inhibition"
CCC(C)(C)n1nnnc1C(c1ccc(OC)c(OC)c1)N1CCN(c2ccccc2)CC1 (stereo not drawn),"inconclusive: 31.6 µM [activator, single point]",
CCCCC(=O)O[C@H]1CC[C@H]2[C@@H]3CCc4cc(O)ccc4[C@H]3CC[C@]12C,,inactive: -11.3%
Cc1cc(-c2nc3ncccc3o2)ccc1N,"inconclusive: 3.98 µM [inhibitor, single point]",
O=c1c2ccccc2nc(-c2cccs2)n1-c1cccc2ccccc12,"inconclusive: 31.6 µM [inhibitor, single point]",
COc1ccc(CCNC(=O)c2ccc3c(c2)CCN3S(=O)(=O)c2ccccc2)cc1OC,"inconclusive: 39.8 µM [activator, single point]",
CCC(C)(C)C1CCc2nc3ccccc3c(C(=O)OC(C)C(=O)Nc3c(C)n(C)n(-c4ccccc4)c3=O)c2C1 (stereo not drawn),"inconclusive: 39.8 µM [activator, single point]",
Cc1ccc(-c2csc3nnc(SCC(=O)Nc4nsc(-c5ccccc5)n4)n23)cc1,"inconclusive: 31.6 µM [inhibitor, single point]",
O=C1/C(=C\c2cccs2)Sc2ccc3ccccc3c21,"inconclusive: 39.8 µM [inhibitor, single point]",
NS(=O)(=O)c1ccc(N2N=C(c3ccccc3)CC2c2ccccc2)cc1 (stereo not drawn),"inconclusive: 25.1 µM [activator, single point]",
CC(C)(C)CC(=O)N1CCC(c2nc3c(nnn3Cc3c(F)cccc3Cl)c(=O)[nH]2)CC1,"inconclusive: 25.1 µM [activator, single point]",
COc1cc(N2C(=O)CSC23C(=O)N(Cc2cccc(F)c2)c2ccccc23)cc(OC)c1OC (stereo not drawn),"inconclusive: 39.8 µM [activator, single point]",
O=C(COC(=O)c1ccccc1OCC(=O)Nc1ccc(Br)cc1)Nc1ccccc1,active: 12.6 µM,
Cc1noc(C)c1-c1nccc(NC2CC2)n1,,inactive: -0.61%
O=C(O)c1ccccc1C(=O)O,,inactive: -0.486%
COc1cc(NC(=O)c2nn(C)c3c2CS(=O)(=O)c2ccccc2-3)cc(OC)c1,"inconclusive: 25.1 µM [activator, single point]",
Cc1ccccc1-n1c(SCC(=O)c2cc(C)n(C)c2C)nnc1-c1cccnc1,"inconclusive: 39.8 µM [activator, single point]",
COc1ccc(/C=N/Nc2nc(-c3cccc(S(=O)(=O)N4CCCC4)c3)cs2)c(OC)c1,active: 7.94 µM,
CC(=O)c1ccc2c(ccc3ccccc32)c1,,inactive: 6.49%
O=C(COC(=O)/C=C/c1cccc(Br)c1)NCCC1=CCCCC1,"inconclusive: 20 µM [inhibitor, single point]",
CCOc1ccccc1NC(=O)CSc1ncc(S(=O)(=O)c2ccc(C(C)(C)C)cc2)c(=O)[nH]1,"inconclusive: 7.94 µM [activator, single point]",
Cc1ccc(-c2ccc(/C=N/N3C(=O)C4C5C=CC(CC5)C4C3=O)o2)c([N+](=O)[O-])c1 (stereo not drawn),"inconclusive: 39.8 µM [inhibitor, single point]",
NC(=O)C1(NC(=O)[C@@H]2CC3(CC(c4cccc(NC(=O)[C@@H]5CCC(=O)N5)c4)=NO3)CN2C(=O)Cc2ccc(C(F)(F)F)cc2)CC1 (stereo partly drawn),"inconclusive: 39.8 µM [activator, single point]",

Compound,Potency,"max response, negative = inhibition"
COc1cccc(C2N(c3ccc(Cl)c(Cl)c3)C(=O)C3CCCN32)c1OC (stereo not drawn),"inconclusive: 31.6 µM [activator, single point]",
O=C(CSc1nc(-c2ccccc2F)nc2nc[nH]c12)Nc1c(Cl)cc(Cl)cc1Cl,active: 6.31 µM,
COc1ccc(C(=O)Nc2nnc(Cc3cccs3)s2)cc1OC,"inconclusive: 31.6 µM [inhibitor, single point]",
Cc1ccc(NC(=O)CCNS(=O)(=O)c2ccc3c(c2)CCN3C(=O)C2CC2)c(Cl)c1,,inactive: -6.16%
Cc1ccc(N2C(=O)C3C(C2=O)C(C(=O)c2ccc(Cl)cc2)N2CCCC32)cc1 (stereo not drawn),,inactive: -3.61%
O=C(Nc1ncc(Cc2ccc(Cl)cc2)s1)c1ccc2c(c1)CC(c1ccccc1)OC2=O (stereo not drawn),"inconclusive: 39.8 µM [inhibitor, single point]",
NC(=NCc1ccccc1)NC(=O)c1nc(Cl)c(N)nc1N,active: 14.1 µM,
O=C(COC(=O)CSc1cc(Cl)ccc1Cl)Nc1ncc(C(F)(F)F)cc1Cl,,inactive: -6.29%
O=c1cc(CN2CCN(c3cccc(Cl)c3)CC2)c2cc3c(cc2o1)CCCC3,active: 12.6 µM,
CCOC(=O)c1c(C2COc3ccccc3O2)csc1N (stereo not drawn),,inactive: -5.6%
O=C(CCS(=O)(=O)c1nc(-c2ccc3c(c2)OCO3)cc(C(F)(F)F)n1)Nc1ccc(F)c(Cl)c1,"inconclusive: 39.8 µM [inhibitor, single point]",
O=C(Nc1nc2c(ccc3ccccc32)s1)c1ccco1,,inactive: -20%
Cc1cccc(C)c1N(CC(O)Cn1c2ccccc2c2ccccc21)S(C)(=O)=O (stereo not drawn),"inconclusive: 31.6 µM [activator, single point]",
Cn1c(CO)cnc1SCc1c(Cl)cccc1Cl,,inactive: -1.25%
COc1ccc(Nc2ncc(C(=O)Nc3cc(Cl)c(OC)cc3OC)c3ccccc23)cc1,"inconclusive: 20 µM [inhibitor, single point]",
Cc1noc(Cn2c(=O)c3ccccc3n(CC(=O)Nc3ccc(Cl)cc3)c2=O)n1,,inactive: -5.76%
CC(C)c1cccc(C(C)C)c1NC(=O)c1ccc(OCC(=O)NCc2ccccc2)cc1,active: 7.94 µM,
O=C(Cc1coc2ccc3ccccc3c12)N1CCc2ccccc21,active: 12.6 µM,
O=C(NN=C1c2ccccc2-c2ccccc21)c1cccc(Br)c1,"inconclusive: 39.8 µM [inhibitor, single point]",
C=CCn1cc(/C=N\NC(=O)c2cc3c(ccc4ccccc43)o2)c2ccccc21,active: 15.8 µM,
Cc1ccc(C(=O)CSc2nnc(-c3ccccc3)n2-c2ccccc2)cc1,"inconclusive: 3.98 µM [activator, single point]",
